From the supplement of paper PMC11417369
± gives the standard deviation of the averaged measurements. Some of the results follow.

test system: PfAP2-G AP2 domain (GST-tagged); assay: gcPBM binding intensity (ln(normalized median fluorescence intensity)); higher = stronger DNA binding
How it was run: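 For binding intensity, the highest Masliner-normalised natural-log median intensity across replicate spots of either probe orientation was taken. Protein bound to the array was stained with Alexa488 anti-GST antibody and scanned at 488 nm. The protein, GST-tagged P. falciparum DNA-binding domains from E. coli at about 25 μg on average, had been applied for 1 h to an Agilent 4 × 180k array of primer-extended double-stranded 36-bp intergenic genomic probes and negative controls.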

| Sequence | gcPBM binding intensity (ln) |
| --- | --- |
| GGAAACACGATATATACACACATATTTATATTTATA [CACACA_site6250] | 10.01 ± 0.057 |
| AAAGATAATATATGCACACATATAAATATATAAATA [CACACA_site3477] | 9.9 ± 0.35 |
| TATATCATAAAAAATTGTACATATATATATTATATA [XGTACX_site6726] | 11 ± 0.69 |
| TGATGGGACATAAATATTGAGATGATCATAAGATAA [TGCATGCA_negctrl_site276] | 10.2 ± 0.21 |
| AAAAAAAAAAAAAGTACACACTTTTGCGTACAAGTA [CACACA_site5672] | 11.9 ± 0.83 |
| TATTTATTATATAAATGTACATAATATATGTATGTC [XGTACX_site2815] | 10.9 ± 0.57 |
| ATATAAAATGAACATAGTACTTTTTATATATTTTAA [XGTACX_site7461] | 10.9 ± 0.66 |
| TACCTATACCTATACACACACACACGGAAATAAATA [CACACA_site6750] | 10.3 ± 0.41 |
| AATTTTATAAAAAGTAGTACATATCAAACACCTTGA [XGTACX_site2297] | 11.6 ± 1.1 |
| AAGAAAAAAAAAAAAAAAAAAAAAAAAAATTTATGA [TGCATGCA_negctrl_site294] | 9.46 ± 0.12 |
| CAGTTATTTTAATGTGGTACACAATTTTAAAATTAT [XGTACX_site8571] | 11.5 ± 0.93 |
| TGAAATGATATATAAACACACATATATAAATATGTA [CACACA_site7616] | 9.5 ± 0.057 |
| AAATATAATTTGCGATGTACACATATATATTTATTT [XGTACX_site1568] | 11.3 ± 0.79 |
| TTATGATTATAACGTTTTGACATTAGGCATATATAT [CACACA_negctrl_site1396] | 10 ± 0.32 |
| TGACTTTTTTTTTTTTTTTTTTTTTTTTATCTTTTT [CACACA_negctrl_site481] | 9.62 |
| GACACTTTGAAGGGTACATGCAGAAAAAAAAAAAAA [TGCATGCA_site89] | 11.2 ± 1.1 |
| TTTTATTTATCTAATTGTACTCATTCTTTTTTGATG [XGTACX_site2876] | 11.4 ± 0.81 |
| GCTAAAAGTATATGCACACACATATAGATGCACATA [CACACA_site6868] | 10.2 ± 0.24 |
| ATTCTATATTTAAATGCATGCACTTTCTATTTTTTT [TGCATGCA_site435] | 9.955 ± 0.049 |
| TTTAATTTGTTATACACACACAAAAAAAATTATAAA [CACACA_site3937] | 10.2 ± 0.3 |
| CATACATAGAAACACACACACACACCCACCCACAAA [CACACA_site494] | 10.3 ± 0.21 |
| AATGTGCCCACGCGTACACACAAAAAAAGAAAAAAA [CACACA_site2003] | 11.7 ± 1.1 |

| Sequence | gcPBM binding intensity (ln) |
| --- | --- |
| TTTTAAAAAAAAAAAAAAAAAATTAAAATAATTCAA [TGCATGCA_negctrl_site69] | 9.08 ± 0.014 |
| ATAAAATAATTAATGGGTACATAATTAAATAAAGAG [XGTACX_site3309] | 11.3 ± 0.66 |
| GGATAAGATGTATATACACACAATTTAAAAAAATAA [CACACA_site910] | 10.1 ± 0.23 |
| AAGATAGACTCATATGCATGCATTCACATACCAACA [TGCATGCA_site179] | 10.09 ± 0.064 |
| TTAATATAGGAATATGCACACATATATACATACATA [CACACA_site8432] | 9.945 ± 0.064 |
| AATACAATTTTTAACACACACACAATAATACAGATA [CACACA_site4823] | 10.2 ± 0.18 |
| GTGTAATTTATTGTGTTGCACTTTTTTTTTTTTTTT [GTGCAC_site9644] | 10.6 ± 0.32 |
| TACAATTTGATATATACACACAAATAAATTATGCTT [CACACA_site6534] | 9.98 ± 0.25 |
| AAAAGTACAATATATATGTATGTGTATAGAATGGTT [TGCATGCA_negctrl_site76] | 11.1 ± 0.79 |
| ATAATATTATACTTTGCACACATCTGAAATGACATA [CACACA_site3952] | 10.2 ± 0.18 |
| GATAAAATAAAAGTGGGTACTTAAATATATATATAA [XGTACX_site8457] | 11.2 ± 0.67 |
| TTTGATAAAATTGATATCCTATAATTATATAAATAA [GTGCAC_negctrl_site317] | 9.7 ± 0.028 |
| AAAAAACAGACATACACACACACACCCATATATATA [CACACA_site3392] | 10 ± 0.11 |
| AAAGAATTTAAATATTGTACGCAATATATAAAAAAA [XGTACX_site7616] | 11.5 ± 0.92 |
| TAATATTATTATTTTACACACTTTTTTCCTTTTATC [CACACA_site2457] | 9.985 ± 0.049 |
| ATATGAAGTTATATAGTGCACATGTACAACCAAATC [GTGCAC_site9974] | 11.6 ± 0.88 |
| GATGTTCATCACTACACACACAAAGAAATATAAATA [CACACA_site7294] | 10.1 ± 0.27 |
| TACCCAAAGTTACATACACACTAATATTTACACCAT [CACACA_site4709] | 10.1 |
| TTCTATATATATATAGACAAACGATAAAATAAAAAA [GTGCAC_negctrl_site142] | 10.1 ± 0.23 |
| TAATAATAGTGAGAGTGTACTTTAAATAAAATATAT [XGTACX_site2850] | 11.2 ± 0.83 |
| AGAAAAGAAATTAGTTGTACTCTGATGAATTATCCT [XGTACX_site6284] | 11.3 ± 0.79 |
| TAGATACATACACGCACACACATATATATATATATA [CACACA_site12] | 10.4 ± 0.34 |

| Sequence | gcPBM binding intensity (ln) |
| --- | --- |
| ATCTTCAAAAATATTAGTACACATGTATCATGAATT [XGTACX_site3872] | 11.3 ± 0.93 |
| CCACATTAAAAAAAAACACACATATATTATAGATAT [CACACA_site6662] | 9.94 ± 0.042 |
| AATGTACGTTTTATAACACACACACTAATAAAAAAA [CACACA_site9286] | 11.3 ± 0.97 |
| TAGTGATATAATTATGTGCACTTAATACAGGTCGAT | 10.6 ± 0.42 |
| TTTATTTGTAACGGTTGTACTTGTATATCATTATGA [XGTACX_site4281] | 11.4 ± 0.61 |
| CACTAAAATAGACACACACACACACGGATATAAATA [CACACA_site7873] | 10.3 ± 0.23 |
| CTTAAATTTAAGTTCACACATATTGGTCATTTATAT [CACACA_site5006] | 10.8 ± 0.44 |
| ATGTATATATATATATGTACTAATTAGTAGTTTACG [XGTACX_site6272] | 11.1 ± 0.71 |
| TGTATGTATAAAAACGCATGTATGTATTTTACAATA [TGCATGCA_site767] | 9.84 |
| ATATATATACCAAGTAGTACATTCTACAACTAATGT [XGTACX_site8653] | 11.3 ± 0.7 |
| GATATTTTTTTCGAAAGTACAAAAAAAAATATTTCC [XGTACX_site4389] | 11 ± 0.72 |
| AAAATTAAAAATAACACACACATATATATATTTATA [CACACA_site2776] | 9.73 ± 0.13 |
| ATACAGATATATAATACACACATAAATGTAACATTT [CACACA_site5864] | 10.055 ± 0.007 |
| TACTAAGAATTAATATAACAAAATAAAAAAAAAAAA [XGTACX_negctrl_site346] | 9.66 ± 0.26 |
| AATACATACATACATACACACATATAAATATATTAT [CACACA_site7650] | 10.2 ± 0.17 |
| AAAAAAAAAAAACACACACACACAAATATATAAAAA [CACACA_site1171] | 9.98 ± 0.099 |
| GTATAAAAGTTATATACACACAACAGAATTACATAT [CACACA_site6212] | 10.17 ± 0.071 |
| TTTGAAAAAAATTAATGTACATTTGAAATGACATAT [XGTACX_site3902] | 10.8 ± 0.52 |
| ATACCTTCTTTTATGTTTAATTAATATACTTTTTAT [CACACA_negctrl_site1557] | 10.01 ± 0.014 |
| TTTTATTTAAATACACGTACATAATGTATATATATA [XGTACX_site7160] | 11.5 ± 0.93 |
| TTTGCCCAAAAAGGTACACACCACAATGTACATAAA [CACACA_site4599] | 11.9 ± 1.1 |
| TCATATATGGGTAGTATACACACTGTATATTTAGGA [CACACA_site2844] | 10.06 ± 0.071 |

| Sequence | gcPBM binding intensity (ln) |
| --- | --- |
| GAACATTTCACACAAAAAAAAAAAAATATATATATA [TGCATGCA_negctrl_site518] | 9.68 ± 0.36 |
| TCTTTTTAAATATATACACACCGTGTCTACAGATAC [CACACA_site5784] | 10.18 ± 0.071 |
| ACATGATGTCATAAATGTACGCACACATACATAAAC [XGTACX_site1198] | 11.5 ± 0.93 |
| TACTAATATAATAAAAGTACTTAAATAAATATATGT [XGTACX_site2220] | 11.3 ± 0.79 |
| AATTATATGCTTAATACGCACACGGGAAAAAAAAAA [CACACA_site1376] | 10.5 ± 0.4 |
| TCGTAATAATAGTTGAGTACGCACTAATATGTCAAT [XGTACX_site643] | 11.4 ± 0.82 |
| TATTTACATTTTAGTAGTACATATATGTATATATAT [XGTACX_site6839] | 11.3 ± 0.79 |
| TAAATAAAAAAAAATCGTACATATATTTTATATATG [XGTACX_site3293] | 11.1 ± 0.88 |
| TTTTCAAAAATATACACACACATAAATATCTGTATA [CACACA_site4586] | 9.855 ± 0.035 |
| TAATTATTTAAAAAGAGTACATTTTTTTTTTTTTTT [XGTACX_site1060] | 11.3 ± 0.78 |
| ATAATTATTTAATATATATATATTATTTCGAATGTT [GTGCAC_negctrl_site688] | 9.715 ± 0.007 |
| ATTCTATATAAATATACACACATATATAAAATACAT [CACACA_site2293] | 9.96 ± 0.071 |
| TTAATAATTAATATATGTACTGATAAATAACATATA [XGTACX_site3966] | 10.9 ± 0.64 |
| AGATAAAATATATATGCACACACATATATATTTCAT [CACACA_site9183] | 9.84 ± 0.042 |
| TCTTGTATATGTTAAAGTACACAACAATATATATAT [XGTACX_site6814] | 11.5 ± 0.99 |
| ATATTCTTGTTTAATACACACTGTAGTATTATATAT [CACACA_site4400] | 10.3 ± 0.13 |
| TAATGAGCGCTTGTAGTGCATTATATTCAAAAATAT | 10.2 ± 0.25 |
| AGAAAAAAACAACATGCACACGCACCCACAAAAAAA [CACACA_site7908] | 10.4 ± 0.33 |
| TCCCACTGTTATATTGAAAAAAAAAAAAAAAAAAAA [TGCATGCA_negctrl_site288] | 9.82 ± 0.5 |
| TGTTTGTAATTATGTATGCACTTTTTTGTATGTGTG [GTGCAC_site9668] | 10.3 ± 0.22 |
| ACATATCTATCGTTTTTAATTGTATATTATTATAAC [TGCATGCA_negctrl_site144] | 9.87 ± 0.028 |
| AAATATTTTTAAAGAAGTACTTTTTAAAAATAATCT [XGTACX_site4897] | 11.2 ± 0.69 |
